# According to PubChem BioAssay AID504333 (National Center for Advancing Translational Sciences (NCATS), 2011):
# Among all 360,000 compounds or so, about 16,000 (4.4%) were called active. The shares of active, inactive and inconclusive entries below differ from those in the screen. Calls come from the whole dose curve; as a rule, active = well fitted inhibition curve with a large enough effect; inconclusive = small, poorly fitted or top-dose-only effect; inactive = no such curve, though single readings can be large or run the other way. Potencies beside an inconclusive call are fits to weak or partial responses and may not hold up.
# Target: Bromodomain adjacent to zinc finger domain protein 2B (Homo sapiens) (UniProt Q9UIF8)
# Chain of UniProt Q9UIF8 (Q9UIF8 whole entry, looked up, the tested form may be a part): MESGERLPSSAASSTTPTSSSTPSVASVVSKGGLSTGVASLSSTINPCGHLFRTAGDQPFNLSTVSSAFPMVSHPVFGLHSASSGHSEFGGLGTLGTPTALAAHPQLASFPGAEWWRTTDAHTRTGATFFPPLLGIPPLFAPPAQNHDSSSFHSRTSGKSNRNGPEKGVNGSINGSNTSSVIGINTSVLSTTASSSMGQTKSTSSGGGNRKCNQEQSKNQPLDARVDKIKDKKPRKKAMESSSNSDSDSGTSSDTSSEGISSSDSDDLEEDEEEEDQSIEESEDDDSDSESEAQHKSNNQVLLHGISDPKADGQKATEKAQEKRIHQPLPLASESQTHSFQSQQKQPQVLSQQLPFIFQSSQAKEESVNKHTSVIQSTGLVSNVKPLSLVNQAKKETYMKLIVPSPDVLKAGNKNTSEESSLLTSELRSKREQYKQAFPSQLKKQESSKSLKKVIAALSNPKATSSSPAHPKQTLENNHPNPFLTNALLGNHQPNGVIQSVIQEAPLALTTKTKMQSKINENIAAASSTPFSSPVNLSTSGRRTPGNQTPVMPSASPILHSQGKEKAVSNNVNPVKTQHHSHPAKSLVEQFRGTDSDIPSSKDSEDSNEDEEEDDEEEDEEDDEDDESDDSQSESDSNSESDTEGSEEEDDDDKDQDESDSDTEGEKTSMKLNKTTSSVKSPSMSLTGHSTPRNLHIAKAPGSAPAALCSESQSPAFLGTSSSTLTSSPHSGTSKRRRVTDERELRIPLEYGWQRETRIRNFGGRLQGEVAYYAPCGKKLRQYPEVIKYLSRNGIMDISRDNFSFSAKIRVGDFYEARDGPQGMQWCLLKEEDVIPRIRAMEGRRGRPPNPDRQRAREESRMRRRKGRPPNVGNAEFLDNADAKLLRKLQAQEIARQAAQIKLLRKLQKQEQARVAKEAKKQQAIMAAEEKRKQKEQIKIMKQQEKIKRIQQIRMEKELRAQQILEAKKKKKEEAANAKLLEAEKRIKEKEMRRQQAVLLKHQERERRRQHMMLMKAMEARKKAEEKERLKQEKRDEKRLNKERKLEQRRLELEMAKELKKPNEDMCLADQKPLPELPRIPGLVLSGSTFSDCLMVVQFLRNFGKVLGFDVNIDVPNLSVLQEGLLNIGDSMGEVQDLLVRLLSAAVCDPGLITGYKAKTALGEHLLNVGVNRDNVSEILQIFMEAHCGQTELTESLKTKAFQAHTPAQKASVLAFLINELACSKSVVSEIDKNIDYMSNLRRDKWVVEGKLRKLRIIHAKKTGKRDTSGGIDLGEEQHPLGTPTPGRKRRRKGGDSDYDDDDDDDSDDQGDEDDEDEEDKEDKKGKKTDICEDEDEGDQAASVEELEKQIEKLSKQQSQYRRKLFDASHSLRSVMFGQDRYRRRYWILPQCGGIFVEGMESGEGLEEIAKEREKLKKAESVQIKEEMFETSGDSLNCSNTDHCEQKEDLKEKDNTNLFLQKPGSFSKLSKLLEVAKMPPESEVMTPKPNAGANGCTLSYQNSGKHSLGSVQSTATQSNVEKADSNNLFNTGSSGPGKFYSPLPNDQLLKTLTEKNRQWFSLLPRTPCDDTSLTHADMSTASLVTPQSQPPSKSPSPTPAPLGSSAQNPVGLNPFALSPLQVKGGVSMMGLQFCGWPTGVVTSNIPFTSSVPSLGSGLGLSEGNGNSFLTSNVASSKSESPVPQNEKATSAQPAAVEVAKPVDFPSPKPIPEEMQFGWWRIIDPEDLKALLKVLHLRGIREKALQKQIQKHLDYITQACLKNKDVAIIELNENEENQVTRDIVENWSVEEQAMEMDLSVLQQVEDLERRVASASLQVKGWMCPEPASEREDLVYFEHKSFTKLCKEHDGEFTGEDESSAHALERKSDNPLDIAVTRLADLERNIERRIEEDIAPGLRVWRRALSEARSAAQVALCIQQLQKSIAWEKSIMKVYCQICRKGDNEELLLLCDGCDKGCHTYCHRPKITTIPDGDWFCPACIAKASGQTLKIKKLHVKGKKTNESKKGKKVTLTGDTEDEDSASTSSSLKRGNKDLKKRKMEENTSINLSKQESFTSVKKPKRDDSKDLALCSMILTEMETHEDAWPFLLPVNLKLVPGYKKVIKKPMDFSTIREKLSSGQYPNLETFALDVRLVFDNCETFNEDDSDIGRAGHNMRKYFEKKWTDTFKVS
# Assay: qHTS Assay for Inhibitors of BAZ2B; note: nearly all actives have a fitted effect of over 60% in size
# Conditions: AlphaScreen BAZ2B-H3K14Ac peptide displacement; series mostly up to 114 µM
# Outline: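 AlphaScreen displacement of biotin-H3(5-23)K14Ac peptide (50 nM final) from BAZ2B (50 nM final) in PBS pH 7.4, 0.01% Tween-20; complex preformed 30 min RT, then compounds (top 110 uM) 30 min RT, beads 20 min dark.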
# Potency is the fitted concentration of half-maximal effect; tags give direction and shape of the fitted curve.
row,Structure (SMILES),Potency
1,COc1ccc(NC(=O)CSc2nnc(-c3ccco3)n2N)cc1Cl,inactive
2,CC1Cc2cc(/C(O)=C3/C(=O)C(=O)N(CCCn4ccnc4)C3c3ccncc3)ccc2O1 (centres undefined),"inconclusive: 100 µM [inhibitor, single point]"
3,O=C(O)c1cc(-c2ccco2)nn1-c1ccc(Cl)cc1,active: 50.1 µM
4,CC(Oc1ccc(Cl)cc1Cl)C(=O)Nc1ccc(N2CCN(C)CC2)cc1 (centres undefined),"inconclusive: 39.8 µM [inhibitor, partial curve]"
5,Nc1ccc(N2CCN(c3ncc(C(F)(F)F)cc3Cl)CC2)c(C(F)(F)F)c1,"inconclusive: 39.8 µM [inhibitor, partial curve]"
6,CNC(=O)c1c(NC(=O)C(C)C)sc2c1CCC2,"inconclusive: 79.4 µM [inhibitor, single point]"
7,CCOC(=O)c1sc(=S)n(-c2cccc(OC)c2)c1N,active: 50.1 µM
8,CCOC(=O)c1c(NC(=O)c2cc(-c3ccc(O)cc3)on2)sc(C(C)=O)c1C,inactive
9,S=C(NCCc1c[nH]c2ccccc12)NC1CCCC1,"inconclusive: 35.5 µM [inhibitor, partial curve]"
10,Cc1cccc(Nc2nc(CC(=O)O)cs2)c1,"inconclusive: 79.4 µM [inhibitor, single point]"
11,CCOc1ccc(NCc2cc3c(C(C)(C)C)nn(-c4ccccc4)c3[nH]c2=O)cc1,active: 22.4 µM
12,COc1ccc2c(C)cc(SCC(=O)Nc3nsc(-c4ccccc4C)n3)nc2c1,"inconclusive: 89.1 µM [inhibitor, single point]"
13,COc1cccc(N2CCN(S(=O)(=O)c3ccc(-n4cnnn4)cc3)CC2)c1,inactive
14,O=C(CSc1nnc(-c2ccc(F)cc2)o1)c1ccc2c(c1)OCCO2,"inconclusive: 79.4 µM [inhibitor, single point]"
15,O=C(N/N=C/c1ccccn1)c1cccs1,active: 31.6 µM
16,C(=N\n1cnnc1)/c1cccn1-c1ccccc1,inactive
17,Cc1onc(-c2c(F)cccc2Cl)c1C(=O)N1CCSCC1,inactive
18,O=C(NCc1ccco1)C12CN(Cc3ccccc3)CC1C(c1cccc([N+](=O)[O-])c1)=NO2 (centres undefined),"inconclusive: 44.7 µM [inhibitor, partial curve]"
19,CC(=O)c1cccc(NC(=O)CN2CCc3cc4c(cc3C2C)OCCCO4)c1 (centres undefined),"inconclusive: 79.4 µM [inhibitor, single point]"
20,O=C(Nc1cc(C(F)(F)F)ccc1Cl)c1nc2ccccc2nc1N1CCCCC1,inactive
21,COc1ccc(OC)c(NCc2nnc(-c3ccccc3)o2)c1,"inconclusive: 79.4 µM [inhibitor, single point]"
22,Cc1cc(NC(=O)CSc2ccc3ccccc3c2)no1,"inconclusive: 56.2 µM [inhibitor, partial curve]"
23,Cc1ccccc1NC(=S)N(CCN1CCOCC1)Cc1ccccc1F,"inconclusive: 39.8 µM [inhibitor, partial curve]"
24,COc1ccc(NC2=NC(=S)N(c3ccccc3C)C23CCCCC3)cc1,inactive
25,CCCCn1c(SC(C)C(=O)c2ccc(OC)cc2)nc2cc(S(N)(=O)=O)ccc21 (centres undefined),"inconclusive: 70.8 µM [inhibitor, single point]"

row,Structure (SMILES),Potency
1,O=C(c1ccco1)N1CCN(C(=O)c2ccc(COc3ccc4c(c3)CCC4)o2)CC1,active: 50.1 µM
2,Cc1cccc(N=Nc2cn[nH]c2-c2ccco2)c1,active: 20 µM
3,Clc1ccc(/C=N/Nc2ncnc3ccccc23)cc1Cl,"inconclusive: 25.1 µM [inhibitor, full curve]"
4,O=C(/C=C/c1ccc(O)c(O)c1)c1ccc(S(=O)(=O)N2CCCCCC2)cc1,active: 35.5 µM
5,COc1ccccc1C1CC(c2cccc(NS(C)(=O)=O)c2)=NN1S(=O)(=O)c1ccccc1 (centres undefined),"inconclusive: 10 µM [inhibitor, full curve, poor fit]"
6,COc1ccc(C(NC(=O)C(C)C)c2ccc3cccnc3c2O)cc1 (centres undefined),active: 44.7 µM
7,O=C(C1CCN(c2ncnc3c2nc2n3CCCCC2)CC1)N1CCN(c2cccc(Cl)c2)CC1,active: 31.6 µM
8,CSc1ccccc1Sc1cc(C(=O)O)c2ccccc2n1,inactive
9,O=[N+]([O-])c1ccc(C2CN=C(Nc3ccccc3)S2)cc1 (centres undefined),"inconclusive: 50.1 µM [inhibitor, partial curve, poor fit]"
10,Cn1c2ccccc2c(=O)c2ccc(C#Cc3ccccn3)cc21,"inconclusive: 89.1 µM [inhibitor, single point]"
11,CC(=O)Nc1ccc2nc3c(=O)[nH]c(=O)[nH]c3nc2c1,"inconclusive: 89.1 µM [inhibitor, single point]"
12,COc1ccccc1C(=O)Nc1ccc(N2CCN(S(C)(=O)=O)CC2)cc1,inactive
13,O=C(CCc1nnc2ccc(NCc3ccco3)nn12)N1CCN(c2ccccc2)CC1,active: 50.1 µM
14,COc1cccc(-c2cc3nc4c(c(N5CCC6(CC5)OCCO6)n3n2)CCC4)c1,"inconclusive: 79.4 µM [inhibitor, single point]"
15,O=C(CN1CCN(S(=O)(=O)c2ccccc2)CC1)Nc1ccc2c(c1)OCO2,inactive
16,Cc1nn(-c2ccccc2)c(=S)n1-c1ccccc1,inactive
17,Cc1ccc(S(C)(=O)=N/C=C2\C(=O)c3sccc3N(C)S2(=O)=O)cc1 (centres undefined),inactive
18,COc1cccc(CCNC(=O)c2cccc(NC(=O)C3=C(C)OCCS3)c2)c1,"inconclusive: 79.4 µM [inhibitor, single point]"
19,COc1ccccc1[N+](=O)[O-],inactive
20,O=C(O)c1cc2ncc(CCO)cn2n1,"inconclusive: 79.4 µM [inhibitor, partial curve]"
21,O=C(COC(=O)CC12CC3CC(CC(Br)(C3)C1)C2)NC(=O)NCc1ccco1,"inconclusive: 50.1 µM [inhibitor, partial curve]"
22,COc1ccc(S(=O)(=O)N2CCCCC2)cc1NC(=O)CNc1ccc(F)cc1C,"inconclusive: 44.7 µM [inhibitor, partial curve]"
23,CC1=NN(C(N)=S)C(=O)C1N=Nc1cc(Cl)ccc1Cl (centres undefined),"inconclusive: 22.4 µM [inhibitor, full curve]"
24,CCOC(=O)c1cc2c(ccn2-c2ccc(F)cc2)n1CC(=O)N1CCN(C(=O)c2ccco2)CC1,inactive
25,COc1ccc(NC2=NCC(=O)N2c2ccccc2F)cc1,"inconclusive: 89.1 µM [inhibitor, single point]"

row,Structure (SMILES),Potency
1,Cc1cc(C(=O)COC(=O)c2cc(O)c3ccccc3c2O)c(C)n1CC1CCCO1 (centres undefined),active: 50.1 µM
2,COc1ccccc1NC(=O)CSc1nnc(-c2ccc(NC(C)=O)cc2)n1C,"inconclusive: 89.1 µM [inhibitor, single point]"
3,CC(C)c1ccc(NC(=O)Cn2cc(S(=O)(=O)N3CCN(c4ccccc4F)CC3)c3ccccc3c2=O)cc1,inactive
4,CCOC(=O)c1ccccc1-n1c(C)cc(C2N=C(N)Nc3nc4ccccc4n32)c1C (centres undefined),"inconclusive: 44.7 µM [inhibitor, partial curve]"
5,Cc1nn(CC(=O)N2CCC(C)CC2)c(=O)c2cc3sccc3n12,inactive
6,O=C(NC(=S)Nn1cnnc1)c1ccccc1Cl,"inconclusive: 89.1 µM [inhibitor, single point]"
7,CN1CCN(C(=O)c2ccc(-c3ccccc3)cc2)CC1,"inconclusive: 89.1 µM [inhibitor, single point]"
8,Cc1ccc2c(=O)cc(C(=O)Nc3nc4ccc(Cl)cc4s3)oc2c1C,"inconclusive: 89.1 µM [inhibitor, single point]"
9,COc1cccc(-c2ncnn2-c2sc3c(c2C#N)CCCCC3)c1OC,inactive
10,O=C(COc1ccc(Cl)cc1)Nc1nnc(S(=O)(=O)N2CCc3ccccc32)s1,"inconclusive: 3.55 µM [inhibitor, full curve]"
11,Cn1cccc1Cc1nnc(SCC(=O)N2CCCCCC2)n1-c1ccc(F)cc1,inactive
12,Cc1ccc(C)c(N2CCN(S(=O)(=O)c3c(C)[nH]c(C)c3C(=O)N3CCCC3)CC2)c1,"inconclusive: 79.4 µM [inhibitor, single point]"
13,Cc1ccc(-c2cc(C(=O)NCc3ccco3)c3ccccc3n2)o1,active: 50.1 µM
14,Cc1ccc(Nc2nc(N)c([N+](=O)[O-])c(N3CCCC(C)C3)n2)cc1C (centres undefined),"inconclusive: 12.6 µM [inhibitor, partial curve]"
15,C/C=C/C(=O)Nc1cccc(C2=NOC3(C2)C[C@@H](C(N)=O)N(C(=O)c2cc([N+](=O)[O-])cc([N+](=O)[O-])c2)C3)c1 (some centres undefined),inactive
16,COCc1nnc(NS(=O)(=O)c2ccc(NC(C)=O)cc2)s1,"inconclusive: 89.1 µM [inhibitor, single point]"
17,O=C(CNCc1ccc(Cl)cc1)N1CCc2ccccc2C1,"inconclusive: 70.8 µM [inhibitor, partial curve]"
18,O=C(CCS(=O)(=O)c1ccc(Cl)cc1)Nc1nnc(-c2ccco2)o1,"inconclusive: 89.1 µM [inhibitor, single point]"
19,CSc1ccc(/C=C/C(=O)N2CCCN(C)CC2)cc1,inactive
20,O=C(O)c1cccc(S(=O)(=O)Nc2ccc(O)c(Sc3nc4ccccc4s3)c2)c1,inactive
21,CCc1ccc(NC(=O)c2sc3nc(C)c(Cl)c(C)c3c2NC(=O)c2ccccc2OC)cc1,inactive
22,CC(C)OC(=O)CSc1nnc(CNc2nc(-c3ccccc3)cs2)n1C,"inconclusive: 89.1 µM [inhibitor, single point]"
23,Cc1ccccc1Nc1nc(-c2sc(NC(=O)c3cccc(Cl)c3)nc2C)cs1,active: 89.1 µM
24,OCCC1CN(Cc2cccc3c2OCO3)CCN1C1CCCC1 (centres undefined),"inconclusive: 44.7 µM [inhibitor, partial curve]"
